# Assay results as given in the RNAGym collection of RNA variant scans (doi:10.7554/elife.90254).
# The source gives no read counts; variants with many changes may rest on few reads.
# B1: LINE1-mini (parent)
# chain: GGCAGAGCUCAACACAGCGUGGCAAAGUGGCUGUGGCUAGACUGCC
# Variants of: B1
# Assay: self-cleavage, relative activity (ratio to wild type); higher = more cleavage; in vitro, sequencing; the parent is a self-cleaving ribozyme
row,Variant,self-cleavage
1,GGCAGAAAUCAACACAGCCUGGCAAAGUGGCUGUGGCUAGACUGCC [G7A C8A G19C],0.07
2,CGUAGCGCUUAACACAGCGUGGCAAAGUGGCUGGGGCUAGACUGCC [G1C C3U A6C C10U U34G],0.01
3,GGCAGAGCUCAACACAGCAUGGCAAAGUAGCUGUGGCGAGACUGCC [G19A G29A U38G],0.02
4,GGCAGAGCUCAACAAAGCGUGGCAAGGUGUCUGAGGCUAGACUGCC [C15A A26G G30U U34A],0.31
5,GGCAGAGCGCAACAUAACGUGGCAAAGUGGCUGUGGAUAGACUGCC [U9G C15U G17A C37A],0.07
6,GGCAGAGCUCAACACAGCGUUGCAAAGGGGCUGUGGCUAGACUGCA [G21U U28G C46A],0.47
7,GGCAGAGCUCAACACAGCGUGGCAAAGUGGCUAUGGCUAGACGGAC [G33A U43G C45A],0.03
8,GGCAGAGCUCAACACAACGUGUCAAAGUGGGUGUGGCUAGACUGCC [G17A G22U C31G],0.04
9,GGCAAAGCUCAACACAGGGUGGCACAGUGGCUGUGGCUAGACUUUC [G5A C18G A25C G44U C45U],0.01
10,GUCACAGCUCAACACAGCGUGGCAAAAUGGCUGAGGCUAGACUGCC [G2U G5C G27A U34A],0.04
11,GGCAGAGCUCAACUCAACGAGGCAAAAUGGAUGUGGCUAGUCUGCC [A14U G17A U20A G27A C31A A41U],0.02
12,GGCAGUGCUCAACACAGCGCGCCAAAGUGGCUCUGGCUAGACUGCC [A6U U20C G22C G33C],0.1
13,GGCAGAGCUCUACCCAGCGUGGCAAAGUGGCUGUGGCUAGAGUGCC [A11U A14C C42G],0
14,GGCAGAGCUCCACACAGCGUGGCAAAGUGGCUGUGUCUAGACAGCC [A11C G36U U43A],0
15,GGCAGAGUUCUACAAAGCGUGGGAAAGUGGCUGUGGCUAGAAUGCC [C8U A11U C15A C23G C42A],0.04
16,GGCAGAGCUCCACACAGCGUGGCAAAGUGGCUGUAGUUAGACUGCC [A11C G35A C37U],0.02
17,GGUAGAUCUCAACACAGCGUGUAAAAGUGGGUGUGGCUAGACUGCC [C3U G7U G22U C23A C31G],0.02
18,CGCAGAGCUCUACACAGCGUGGCCAAGGGGCUGUGGAUAGACGGGC [G1C A11U A24C U28G C37A U43G C45G],0
19,GGCAGAGCUCAACACAGCGUGGCAAAUUCGGUGUGGCUAGACUGCC [G27U G29C C31G],0.16

row,Variant,self-cleavage
1,GGCAGAGCUCAAUACAGCGUGGCACAGUAGCUGUGGCUAGACUUCC [C13U A25C G29A G44U],0.06
2,GGCUGAGCUCAACACAACGCGGCAAAGUGGCUCUGGCUAGAGUGCC [A4U G17A U20C G33C C42G],0
3,GGCAAAGCUCAACACAGCGUGGCAAAGUGGCUGUGCGUAGACUGCC [G5A G36C C37G],0.83
4,GGCAGAGCUCAACACAGCGUGGCAACGUGCCUUUGGCUUGACUGCC [A26C G30C G33U A39U],0.12
5,CGCAGAGCUCAACACAGCGUGGCAAGGUGGCUGUGGCCAGACUGCC [G1C A26G U38C],0
6,GGCAGAGCUCAACACAGCGUGGCAAAGUGGUUGUAGCUAGACUGAC [C31U G35A C45A],0.03
7,GGCAGAGCUCAACACAGCGGGCCAAAGUGGCUAUGGCUAGACUGCG [U20G G22C G33A C46G],0.09
8,GACAAAGCUCAACACAGCGUUGCAAAGUGGCUGUGGCUAGUCUGCC [G2A G5A G21U A41U],0.2
9,GGCAGAGCUCAACACAGCUGGGCAACGUGGCUGUCGCUAGACUCCC [G19U U20G A26C G35C G44C],0.09
10,GGCAGAGCUCAACACAGCGUGGCAAAGAGGCUGUGGGGAGACUGCC [U28A C37G U38G],0
11,GGCAGGUCUCAACACAGCGUGGCAAAGUGGCUGUGGCUAGGCUGCC [A6G G7U A41G],0.49
12,GGCAGACCUCAACACAGCGUGGCAAAAUGACUGUGGCUAGACUGCC [G7C G27A G30A],0.06
13,CGCAGAGCUCAACACAGCGUGGCGAAGUAGCUGUGGCUAGACUGCC [G1C A24G G29A],0.09
14,GGCAGAGCUCAACACAGCUGGGCAAAGUGAGUGUGGCUAGUCUGCC [G19U U20G G30A C31G A41U],0.04
15,GGCACAGAUCAACAGAGCGUGGCAAAGUGGCUGUGGCUGGACUGCC [G5C C8A C15G A39G],0.04
16,GGCAGAGCUCAACACAUCGUGGCAAAGUGGCAGUGGGUAGACUGCC [G17U U32A C37G],0.06
17,GGCAGAGCUCAACACGGCGUGGCAAAGUGGCCGUGGGUAGACUGCC [A16G U32C C37G],0.03
18,GACAGAGCUCAUCACAGAGUGGCAAAGGGGCUGUGGAUAGACUGCC [G2A A12U C18A U28G C37A],0.1
19,GGCAGAGCUCAAUACAGCGUAGCAAAGCGGCUGUGGUUAUAGUGCU [C13U G21A U28C C37U G40U C42G C46U],0.03

row,Variant,self-cleavage
1,GGUAGAGCUCUACACAGCGUGGCAAAGUGGUUGUGGAUAGAAUGCC [C3U A11U C31U C37A C42A],0.01
2,GGCAGAGCUCAACAGAGCGGGGCAAAGUGGCUGUGGCUUGACUGCC [C15G U20G A39U],0.01
3,GACAGAGCCCAAGGCAGCGCGGCAAAGUGGCUGUGGCUAUACUGCC [G2A U9C C13G A14G U20C G40U],0.03
4,GGCAGAGUUCACCACAGCUUGGCAAAGUGGCUAUGGCGAGACUGCC [C8U A12C G19U G33A U38G],0.01
5,GGCAGAGCUCAACACACCGUGGCAAAGUGGCUGUGUCAAGCCAACC [G17C G36U U38A A41C U43A G44A],0.01
6,GGCAGAGCUCAACACAGGGUAGAAACGUGGCUGUGGCUAGUCUGCC [C18G G21A C23A A26C A41U],0.11
7,GGCAGACCUCAACACACCGUGGCAACGUGUCUGUGGCUAGACUGCC [G7C G17C A26C G30U],0.23
8,GGCAGAGCUCAACACAGCGUCGCAAAAUGGUUGUGGCGAGACUGCC [G21C G27A C31U U38G],0.02
9,GGCAAAGCACAACAUAGCGUGGCAAAGUGGCUGUGGCUAGACUGAC [G5A U9A C15U C45A],0.16
10,GGCCGGGCUCACCACAGCGUGGCAAAGUGGCUGUGGCUAGACUGCC [A4C A6G A12C],0.02
11,GGCAGAGCUCAACACAGCGUAGCAAACUGGCUGUGGCCAGAAUGCC [G21A G27C U38C C42A],0.09
12,GGACGAGCUCACCGCAGCGUGGCAAAGUGGCUGUGGCAAGACUGCC [C3A A4C A12C A14G U38A],0.03
13,GGAAGAGCUCAAGACAGCGUGGCAAAGUGGCUGUAGCUAGACUGCC [C3A C13G G35A],0.63
14,GGCAGAGCUGAACACAGCGUGGCAAAGUGGCUGUGGCUAUACUGCA [C10G G40U C46A],0.01
15,GUCAGACUUCAACACAUCGUGGCAAAGUGGCUGUGGAUAGACUGCC [G2U G7C C8U G17U C37A],0.26
16,GGCAGAGCUCAACACAGCCUGGCAAAGUGGCUGUGGCUGGACUGAC [G19C A39G C45A],0.02
17,GGCAGAGCUCAAUACAGCGUGGCAAAGUGCCUGUGGCUAGAUUGCC [C13U G30C C42U],0.06
18,GGCACAGACCAACACAGCGUGGCAAAGUGGCUGUUGCUAGACUGCC [G5C C8A U9C G35U],0.22
